Data on 4 molecules can be found in PMC5931552.

Protein sequences, listed by entry. Tags and fused reporters are not part of them. Residues count along the entry.
UniProt O75581, residues 20-1370: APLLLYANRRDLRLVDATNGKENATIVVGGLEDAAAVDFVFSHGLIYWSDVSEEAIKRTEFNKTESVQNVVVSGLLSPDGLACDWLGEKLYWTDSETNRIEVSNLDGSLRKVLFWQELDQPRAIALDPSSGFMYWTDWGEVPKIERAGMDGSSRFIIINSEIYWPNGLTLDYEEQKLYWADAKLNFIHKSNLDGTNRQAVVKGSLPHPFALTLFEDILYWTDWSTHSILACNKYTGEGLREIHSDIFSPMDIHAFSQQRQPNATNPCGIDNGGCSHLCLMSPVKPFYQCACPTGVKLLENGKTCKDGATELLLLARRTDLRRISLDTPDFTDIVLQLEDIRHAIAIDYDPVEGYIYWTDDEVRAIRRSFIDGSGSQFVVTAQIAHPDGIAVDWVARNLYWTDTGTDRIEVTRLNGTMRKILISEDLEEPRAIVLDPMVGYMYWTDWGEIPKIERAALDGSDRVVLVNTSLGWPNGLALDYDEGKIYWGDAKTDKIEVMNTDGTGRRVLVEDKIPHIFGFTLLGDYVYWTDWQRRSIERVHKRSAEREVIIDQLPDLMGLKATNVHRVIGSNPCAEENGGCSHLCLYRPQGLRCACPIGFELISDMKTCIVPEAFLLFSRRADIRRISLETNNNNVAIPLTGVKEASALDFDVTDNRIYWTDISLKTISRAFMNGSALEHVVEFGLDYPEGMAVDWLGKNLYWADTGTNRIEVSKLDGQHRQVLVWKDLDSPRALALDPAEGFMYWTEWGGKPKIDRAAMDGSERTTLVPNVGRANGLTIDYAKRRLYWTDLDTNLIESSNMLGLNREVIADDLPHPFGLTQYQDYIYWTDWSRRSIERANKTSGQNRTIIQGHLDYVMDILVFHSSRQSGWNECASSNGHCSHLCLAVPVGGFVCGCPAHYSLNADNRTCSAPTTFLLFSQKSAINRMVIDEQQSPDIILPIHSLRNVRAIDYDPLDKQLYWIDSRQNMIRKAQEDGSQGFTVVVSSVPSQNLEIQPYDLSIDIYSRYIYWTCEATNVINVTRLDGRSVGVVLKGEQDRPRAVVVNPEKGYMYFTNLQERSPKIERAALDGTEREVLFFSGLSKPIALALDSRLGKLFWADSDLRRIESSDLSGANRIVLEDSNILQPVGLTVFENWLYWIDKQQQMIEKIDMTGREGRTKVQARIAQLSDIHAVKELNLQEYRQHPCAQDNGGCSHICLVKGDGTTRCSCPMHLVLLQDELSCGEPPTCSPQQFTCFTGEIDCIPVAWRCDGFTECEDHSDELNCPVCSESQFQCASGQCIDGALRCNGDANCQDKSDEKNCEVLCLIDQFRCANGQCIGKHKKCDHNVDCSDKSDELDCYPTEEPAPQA
UniProt Q61091, residues 28-685: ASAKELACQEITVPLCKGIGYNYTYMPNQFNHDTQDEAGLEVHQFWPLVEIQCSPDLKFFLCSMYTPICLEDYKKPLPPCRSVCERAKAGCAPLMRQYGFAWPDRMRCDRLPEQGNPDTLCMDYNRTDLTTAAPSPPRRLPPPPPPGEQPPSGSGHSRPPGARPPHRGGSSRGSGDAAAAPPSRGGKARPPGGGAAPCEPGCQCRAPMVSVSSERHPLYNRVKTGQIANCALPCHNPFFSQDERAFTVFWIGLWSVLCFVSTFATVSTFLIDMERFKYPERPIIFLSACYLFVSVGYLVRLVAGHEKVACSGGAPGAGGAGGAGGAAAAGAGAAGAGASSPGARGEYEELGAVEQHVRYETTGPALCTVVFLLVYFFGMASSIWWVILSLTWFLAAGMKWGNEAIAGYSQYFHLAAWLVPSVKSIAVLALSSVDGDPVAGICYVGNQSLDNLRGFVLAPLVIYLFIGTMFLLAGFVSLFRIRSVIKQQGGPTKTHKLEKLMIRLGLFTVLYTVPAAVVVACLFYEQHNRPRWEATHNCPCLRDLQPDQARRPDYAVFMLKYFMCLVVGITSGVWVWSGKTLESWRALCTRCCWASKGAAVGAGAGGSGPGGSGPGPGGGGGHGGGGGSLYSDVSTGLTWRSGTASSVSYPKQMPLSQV
UniProt P84022: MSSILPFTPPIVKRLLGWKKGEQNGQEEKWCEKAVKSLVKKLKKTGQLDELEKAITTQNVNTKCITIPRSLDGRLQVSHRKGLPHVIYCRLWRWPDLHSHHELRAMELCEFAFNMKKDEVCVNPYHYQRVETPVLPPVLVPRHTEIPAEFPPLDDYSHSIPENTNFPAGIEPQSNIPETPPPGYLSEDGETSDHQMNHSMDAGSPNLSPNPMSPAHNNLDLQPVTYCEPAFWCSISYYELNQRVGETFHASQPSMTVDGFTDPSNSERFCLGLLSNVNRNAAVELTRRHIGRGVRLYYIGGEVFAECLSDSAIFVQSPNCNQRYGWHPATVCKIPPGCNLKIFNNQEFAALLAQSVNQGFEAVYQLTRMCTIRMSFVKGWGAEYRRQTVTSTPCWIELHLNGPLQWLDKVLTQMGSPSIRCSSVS
UniProt P37173, residues 23-567: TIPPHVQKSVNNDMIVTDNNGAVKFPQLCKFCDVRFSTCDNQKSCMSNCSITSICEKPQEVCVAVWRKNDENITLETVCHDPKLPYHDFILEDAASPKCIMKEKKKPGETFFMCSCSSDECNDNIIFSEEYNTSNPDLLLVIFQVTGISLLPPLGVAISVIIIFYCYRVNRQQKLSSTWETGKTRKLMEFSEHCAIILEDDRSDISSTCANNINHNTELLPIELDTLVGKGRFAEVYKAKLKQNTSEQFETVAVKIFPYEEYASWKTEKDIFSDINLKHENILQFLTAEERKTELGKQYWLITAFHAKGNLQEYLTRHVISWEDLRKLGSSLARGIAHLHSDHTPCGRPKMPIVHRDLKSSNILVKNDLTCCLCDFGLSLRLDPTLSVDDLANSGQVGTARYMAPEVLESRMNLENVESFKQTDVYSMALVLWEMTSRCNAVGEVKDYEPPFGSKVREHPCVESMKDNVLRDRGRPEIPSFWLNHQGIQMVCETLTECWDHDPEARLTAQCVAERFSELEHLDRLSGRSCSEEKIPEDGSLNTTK

Results are given in words; binding and its absence hold for the method and conditions named. Binding seen in cells or lysates may run through a third protein. Some entries that bind do so weakly or less than the wild type. Where a sequence is shown, tags or fusion partners need not be part of it.

One experiment deals with T1, HA-ATF2 (UniProt P15336).
T1 sequence: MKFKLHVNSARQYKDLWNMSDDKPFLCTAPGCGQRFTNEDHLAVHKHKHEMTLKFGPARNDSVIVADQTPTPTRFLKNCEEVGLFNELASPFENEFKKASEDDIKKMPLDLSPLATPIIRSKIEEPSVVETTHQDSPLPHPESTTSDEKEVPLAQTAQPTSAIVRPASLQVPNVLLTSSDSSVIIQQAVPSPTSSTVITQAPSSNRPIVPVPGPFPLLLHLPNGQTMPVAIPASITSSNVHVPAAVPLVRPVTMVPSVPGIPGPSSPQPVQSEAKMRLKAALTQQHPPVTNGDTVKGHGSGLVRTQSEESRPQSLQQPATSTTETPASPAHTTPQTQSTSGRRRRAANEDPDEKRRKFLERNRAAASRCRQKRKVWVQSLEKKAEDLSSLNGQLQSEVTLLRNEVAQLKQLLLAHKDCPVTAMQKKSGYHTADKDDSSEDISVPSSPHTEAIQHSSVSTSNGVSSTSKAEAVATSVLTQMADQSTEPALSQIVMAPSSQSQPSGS
As to the kind of experiment: co-IP; PC-3M cells transfected with Flag-SMAD3:HA-ATF2:HA-JUN (5:10:1); immunoprecipitation from the lysate (50 mM Tris-HCl pH 8, 150 mM NaCl, 1% Triton X-100, 1 mM EDTA); Western blot.

In experiment [1] the target is extracellular domain of LRP6 fused to IgG (pCS2 LRP6N-IgG) (UniProt O75581). As to the kind of experiment: pull-down; PC-3M cells transfected 24 h with the IgG fusion protein (FZD8-CRD-IgG or LRP6-IgG) and Flag-TGFβRI, HA-TGFβRII or Flag-ALK5-HA(ecto); Protein A/G-agarose pull-down from the lysate without antibody; blots for HA, Flag and IgG.
The target of experiment [2] is 1D4-tagged FZD8 (pRK5 mFzd8-1D4) (mouse) (UniProt Q61091). As to the kind of experiment: co-IP; PC-3M cells transfected 24 h with FZD8-1D4 and Wnt-11-PA (1:2); lysis in 50 mM Tris-HCl pH 8, 150 mM NaCl, 1% Triton X-100, 1 mM EDTA; anti-1D4 and anti-PA immunoprecipitates on Protein A/G PLUS-Agarose; Western blot.
The target is the same in experiment [3]. Nature of the experiment: co-IP; PC-3M cells transfected 24 h with FZD8-1D4, TGFβRI-Flag and HA-TGFβRII; treated -/+ 1 ng/ml TGF-β for 30 min in one panel; lysis in 50 mM Tris-HCl pH 8, 150 mM NaCl, 1% Triton X-100, 1 mM EDTA; anti-1D4 immunoprecipitates; blots for HA, Flag and 1D4.

On to Flag-SMAD3 (from UniProt P84022 1-425), for which, in the experiment with HA-ATF2, the binding entry is recorded as “no binding”.

With “HA-tagged TGFβRII (pCMV5B TGFβR2 wild-type, N-terminal HA) (from UniProt P37173 23-567) (receptor)”, in experiment [1], the binding result is on record as “no binding”.

B1: PA-tagged Wnt-11 (ligand, UniProt O96014 25-354)
chain: IKWLALSKTPSALALNQTQHCKQLEGLVSAQVQLCRSNLELMHTVVHAAREVMKACRRAFADMRWNCSSIELAPNYLLDLERGTRESAFVYALSAAAISHAIARACTSGDLPGCSCGPVPGEPPGPGNRWGGCADNLSYGLLMGAKFSDAPMKVKKTGSQANKLMRLHNSEVGRQALRASLEMKCKCHGVSGSCSIRTCWKGLQELQDVAADLKTRYLSATKVVHRPMGTRKHLVPKDLDIRPVKDSELVYLQSSPDFCMKNEKVGSHGTQDRQCNKTSNGSDSCDLMCCGRGYNPYTDRVVERCHCKYHWCCYVTCRRCERTVERYVCK
As for B1, the binding entry in experiment [2] was “binds”.

B2: Flag-tagged TGFβRI (pRK5 TGFβR1-Flag) (receptor, UniProt P36897 34-503)
chain: LQCFCHLCTKDNFTCVTDGLCFVSVTETTDKVIHNSMCIAEIDLIPRDRPFVCAPSSKTGSVTTTYCCNQDHCNKIELPTTVKSSPGLGPVELAAVIAGPVCFVCISLMLMVYICHNRTVIHHRVPNEEDPSLDRPFISEGTTLKDLIYDMTTSGSGSGLPLLVQRTIARTIVLQESIGKGRFGEVWRGKWRGEEVAVKIFSSREERSWFREAEIYQTVMLRHENILGFIAADNKDNGTWTQLWLVSDYHEHGSLFDYLNRYTVTVEGMIKLALSTASGLAHLHMEIVGTQGKPAIAHRDLKSKNILVKKNGTCCIADLGLAVRHDSATDTIDIAPNHRVGTKRYMAPEVLDDSINMKHFESFKRADIYAMGLVFWEIARRCSIGGIHEDYQLPYYDLVPSDPSVEEMRKVVCEQKLRPNIPNRWQSCEALRVMAKIMRECWYANGAARLTALRIKKTLSQLSQQEGIKM
With B2, the binding result is “binds” in experiment [3] and “no binding” in experiment [1].
